In the RNAGym collection of RNA variant scans (doi:10.7554/elife.90254) one finds self-cleavage data, which are given here for 167 variants.

The source gives no read counts; variants with many changes may rest on few reads.

To fix the notation:
B1: LINE1-mini (parent)
chain: GGCAGAGCUCAACACAGCGUGGCAAAGUGGCUGUGGCUAGACUGCC

The data set covers variants of B1. Nature of the data set: self-cleavage, relative activity (ratio to wild type); higher = more cleavage; in vitro, sequencing; the parent is a self-cleaving ribozyme.
As for G1U A6C C18A U38C, the self-cleavage stood at 0.

G1U C3G C10G: the self-cleavage was found to be 0.02. To G1U A4G A14U A16C G27U A41U belongs 0.02. To G1U A6C C8G U9G C42U belongs 0.02.

On to G1U A11U C15U C45A, for which the self-cleavage turned out to be 0.03. In the case of G1U A11U A24G G44U it was 0.01; in that of G1U A6U C10U A24C G44U, 0.02; in that of G1U C3A G5A A11U G19C U32C A39U, 0.05. To G1U A4U A41G belongs 0.14; to G1U C8G G22U G40A, 0.03; to G1U C13U C31A C42U, 0.11. To G1U C13U C18U U20G U32A G35C G44U C45G C46A belongs 0.06.

As for G1U A6C G21A G40U, the self-cleavage was 0.04. To G1U C13U G21C G29A C46U belongs 0.13; to G1C U38C C45G, 0.

Consider G1U C13A A14G G29C, for which the self-cleavage turned out to be 0.02. In the case of G1U A24C U28C C37U G40C, the self-cleavage came out at 0.01. To G1U C13U G21U belongs 0.07. With G1U A6G C13G G27U G40C, the self-cleavage was 0.01. In the case of G1U C13G G17C it was 0.14; in that of G1U A14C C45U, 0.03.

Turning to G1C U9C G17U C18G G35U G36A, the self-cleavage was found to be 0. In the case of G1U C8U C10G A25G, the self-cleavage is 0.01. In the case of G1U C13U G21U C31U it was 0.01; in that of G1U A25U A39G, 0.04; in that of G1C U9G C13A A25U A41G, 0.01.

As to G1U C3A C8G G36A, the self-cleavage was found to be 0.1. To G1U A14G G17A G36U C46G belongs 0.02; to G1U A4U C10A A16G G30C, 0.01. Turning to G1U A6C C10A A25U U43C, the self-cleavage was 0. In the case of G1U C8A G30U C31A it was 0.04; in that of G1U A6U G21U A26C C42A, 0; in that of G1U A14G G19A A41U, 0.19. To G1U A4U C13A G19A G33U C42G belongs 0.07; to G1U C8U C10G C23U C45A, 0; to G1U A6G A12G G17A G19U G21U, 0. To G1U C8G G44C belongs 0.02. As to G1U A14U G29U, the self-cleavage amounted to 0.04. To G1C U28A G30A belongs 0.03. As for G1U C3G A6G C8G G17U C18A G22C, the self-cleavage is 0.72. G1U C8A U9C U20G U32A G35C C37G G40U: the self-cleavage was 0.01. To G1C U32A G33C G44A C46A belongs 0.

In the case of G1U A11G A39G, the self-cleavage was 0.03. To G1U C3A C45G belongs 0.26; to G1U C3A G30A, 1.51.

For the variant G1U C3A G30U, the self-cleavage was determined as 0.87. Regarding G1U A4G A11G, the self-cleavage stood at 0.02.

For G1U C8A C13G C45A, the self-cleavage stood at 0.06. In the case of G1U C8A C13U A41C C45A C46U it was 0.11; in that of G1C U20A C23G, 0.04. In the case of G1U A6G C23G G27C U34A it was 0.01; in that of G1U A4C A24U G30U C45G, 0.04; in that of G1C U9G U20G C23A, 0. In the case of G1U A4G C23A G27C G35A it was 0.38.

In the case of G1U C3U G5C C10A C18U U20C C46G, the self-cleavage stood at 0.03.

With G1U C8A A16C G22U, the self-cleavage worked out at 0.11. With G1U C13A U20G G27C U38A, the self-cleavage is 0. In the case of G1U C8U A14U G21U G36U it was 0.06; in that of G1U C8A G29U, 0.25. Take G1U C8U C10A C13A C31U G33U: the self-cleavage is 0.01. For G1C U20C U38G, the self-cleavage was determined as 0.01.

As for G1U C8A U38A C45G, the self-cleavage was 0.17. In the case of G1C U20G G22U G29C U34A G36A U38A C46U it was 0.01; in that of G1U C8U C15G, 0.04; in that of G1U C8G G33A C46G, 0.03. As for G1C U9G C10A G19C, the self-cleavage is 0. To G1U A6C A24C C31G belongs 0.03; to G1U A11U C18U, 0.03.

For the variant G1U A11U A12U C15G, the self-cleavage came out at 0.01. With G1U A6U C15U, the self-cleavage was determined as 0.04. With G1C U34A C37G U38C, the self-cleavage is 0.01. In the case of G1U A25G C46U it was 0.06; in that of G1U A14G U32G U34C G36A C37U, 0.02. To G1U A12C C18A G27C G40U G44C belongs 0; to G1U A6U U34A G36U, 0.02; to G1U C3U C13A A16C G21U, 0.29. In the case of G1U C10A A11G G33U it was 0.04; in that of G1U C13A C18G C31G G40C, 0.01.

G1U A11G G44A: the self-cleavage was 0.02. In the case of G1U C8U U9A A11C A14U G29C C31U it was 0. To G1C U32A C42U belongs 0; to G1U A14U G30U G33C A41U, 0.02. In the case of G1U C8U G17C A41U it was 0.08. On to G1U C13A G21U, for which the self-cleavage was 0.05. With G1U C13A A14C G17A G35U, the self-cleavage was determined as 0.03. To G1U C15A A16G A25U belongs 0.02; to G1U C3A C42U C46U, 1.13. G1U C3A C18A C23U: the self-cleavage worked out at 1.85. In the case of G1U C8U G40U A41G it was 0.03. To G1U A14G G29U C46U belongs 0.52; to G1U A14U U38G, 0.01; to G1U C10U U20A, 0.03.

Take G1U C3U G7U C23G C31G G36U G40C: the self-cleavage was determined as 0.03.

Turning to G1U C3A G5C G35A A39G, the self-cleavage was found to be 0.11. In the case of G1U A16U G29A G30A it was 0.04.

In the case of G1U A12U A16U A26C U34A G40U U43A, the self-cleavage is 0.01.

For G1U C10A G22C C23G, the self-cleavage was found to be 0.02. Turning to G1U A4U G21A, the self-cleavage was 0.79. In the case of G1U A24G G27C G40U it was 0.04; in that of G1U C10U G27U G44U, 0.07; in that of G1U C3G G35A G40C, 0.08. To G1U A11G G35C G40C C45G belongs 0.01; to G1U A6U C13G G19C A26U G29C C42G, 0.02. In the case of G1U C10A C37U it was 0.01; in that of G1U A16U C45A C46G, 0.02. With G1U A6U G22A G44A, the self-cleavage was found to be 0.04. To G1U A12U A26U A41G belongs 0.01; to G1U C10U U20C G21C U43G, 0. In the case of G1U A11U A24C it was 0.03; in that of G1U C3A A6G, 0.32; in that of G1U A4U G19C, 0.13. As to G1U C3A C10A A14C A16C G30C G35U, the self-cleavage came to 0.03. To G1U A14U G17A C23A G44U belongs 0.03; to G1U A4U G29A, 0.16; to G1U A14U U43G, 0. In the case of G1U A14U U43A it was 0.02. For the variant G1U C13A G29U, the self-cleavage stood at 0. G1U C3G A4G A24U: the self-cleavage worked out at 0.01.

As for G1U C10A C13G, the self-cleavage was found to be 0.03. For G1U A6G A14U, the self-cleavage stood at 0.06. In the case of G1U C3G G29A G44A, the self-cleavage was 0.15.

Consider G1U C8A G27C U34C G35C G36U C46A, for which the self-cleavage was 0.02. To G1U A11G A16C G19C C31U belongs 0; to G1U A6G C10G C13G G36A A39G C42A, 0; to G1U A6G C8A C18A G33U, 0.09.

Take G1U C13U G27U A41U C46A: the self-cleavage was found to be 0.05. To G1U A26G C37A A39G C46U belongs 0.02; to G1U A11C C45A, 0.01; to G1U C8U C23G G33U, 0.08. In the case of G1U A25C C37U, the self-cleavage came out at 0.

Take G1U C8A C42A: the self-cleavage stood at 0.12.

On to G1U A25U G35C C46A, for which the self-cleavage worked out at 0.01. Consider G1C U20C G27C C37U, for which the self-cleavage was found to be 0.01. In the case of G1U A11U A16G C23U it was 0.02; in that of G1C U20A A24U G35A, 0.03; in that of G1U C3G A4G G5C U20G, 0. Take G1U A4C C8U A14C C42A: the self-cleavage turned out to be 0.01. To G1U A14C G30A belongs 0.21; to G1U C13G G19U, 0.04. In the case of G1U A14G A16C G17C it was 0; in that of G1U A25C G40C G44C, 0.01. In the case of G1U C13G G27C it was 0.01. Take G1U C13G G21A G29U G36U U43C: the self-cleavage came out at 0.05. To G1U C8U C18G U28A U34C belongs 0.04. To G1U A6U A14C A24C A25C belongs 0.02; to G1U A39G U43G, 0.05.

Consider G1U A14C C15A C23U G30C C46G, for which the self-cleavage was determined as 0.03.

Consider G1U C10A C18U G29U G30A, for which the self-cleavage is 0.02. In the case of G1U A14G G22C G27A G36C it was 0.01; in that of G1U A16G G40A, 0.04; in that of G1U C10A U20A G22A A25C G40U U43A, 0. For G1U A14U A16U, the self-cleavage was 0.04. To G1U A26G G35U belongs 0.08; to G1U C10G A16G C23G, 0.01. To G1U A11G G35U G40A belongs 0; to G1U A4U U20G U43A, 0.14. In the case of G1U A4C A6U A24U it was 0.07; in that of G1U A12U C13U G21U A26U C31U C37A U38C, 0.01; in that of G1U A26G U28C C31A, 0.04. Take G1U A12G A14U C23A A39G C45U: the self-cleavage came out at 0. To G1C U9G C18U belongs 0.01; to G1U C3U C13A U20C C46U, 0.24; to G1U C10A A12C A25C G33C, 0.04. G1U A4U C42G: the self-cleavage worked out at 0.04. To G1U C8A U32C G33A belongs 0.04.

For the variant G1C U20G G21C A41U, the self-cleavage is 0.08.

With G1U A14G G22C, the self-cleavage is 0.03.
